The source of these data is paper PMC10726135.

This is one part of the list. At the low end of the ranking, values are background and their order means little. Measured with an extract: partners may take part in the binding.

For the test, the target named is T1, HNF4alpha8 (COS-7 nuclear extract) (UniProt P41235-5).
T1 sequence: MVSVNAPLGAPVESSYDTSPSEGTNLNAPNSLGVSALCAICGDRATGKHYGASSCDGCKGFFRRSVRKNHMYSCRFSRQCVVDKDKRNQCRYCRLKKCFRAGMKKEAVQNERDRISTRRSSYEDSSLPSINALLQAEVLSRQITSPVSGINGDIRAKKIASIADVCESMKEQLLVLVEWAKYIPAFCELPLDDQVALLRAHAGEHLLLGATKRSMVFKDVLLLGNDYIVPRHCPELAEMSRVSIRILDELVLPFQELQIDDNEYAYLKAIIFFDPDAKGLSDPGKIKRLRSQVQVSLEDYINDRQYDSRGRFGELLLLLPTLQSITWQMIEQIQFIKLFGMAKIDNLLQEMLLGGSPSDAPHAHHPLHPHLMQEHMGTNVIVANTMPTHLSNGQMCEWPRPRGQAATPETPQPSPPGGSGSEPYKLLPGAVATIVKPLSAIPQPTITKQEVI
Kind of test: protein-binding microarray. Conditions: COS-7 nuclear extract on double-stranded Agilent 4x180k PBM; binding buffer, salt, pH and temperature not given; high values mean tight binding; double strand, one strand shown; sequences stand for … in …GCCTAGGGAGATTAGAGTATCGGTCGA
As for ACATGCTGTCTAGGCCAGAGTTCACTTTCC, the binding signal (log2 normalized intensity) was 2.76.

In the case of CAGTTTCCAGGGAGGAGAGAAGGGCTGAAG, the binding signal (log2 normalized intensity) is -1.17. Consider ACTGCTTACCCTGCAGTGTGACCTTTGCCT, for which the binding signal (log2 normalized intensity) stood at 8.52. CCAGGAGCAGAAAGGAGGCAGAGACTGCCC: the binding signal (log2 normalized intensity) was -1.32. AGACAAAAGTCCGGAATTTCCTCCTGGCAG: the binding signal (log2 normalized intensity) is -1.31.

With GAGGAATGCTGGTAAACACTGAGCTTTCAT, the binding signal (log2 normalized intensity) was -1.1.

Take TCCTCTCTCCCACAAGGGCAGCCCTGTTTA: the binding signal (log2 normalized intensity) was -0.515. GAGCCACTTCACTGGTGTGATCTTTTTTCT: the binding signal (log2 normalized intensity) was determined as 1.38. Consider TAGCCCTGAACAAACAGCTTCCAGAATAGC, for which the binding signal (log2 normalized intensity) is -1.24.

For TCTGGTGTTCTCTTGGCCAACAACTAGGGC, the binding signal (log2 normalized intensity) came to 0.427. As to AGAGTGGCCTTTGGAATCAAACAGATGTAG, the binding signal (log2 normalized intensity) was 3.03. For the sequence TTAACTGGAGATAACACAACCCCTACTGTA, the binding signal (log2 normalized intensity) turned out to be 1.63. On to GAGGTGTCCTGTAAATAGTGTGTCAGGGAA, for which the binding signal (log2 normalized intensity) stood at 0.636. In the case of GCTGCCAGAGGGTGGCAGCAGCAGGCAGGG, the binding signal (log2 normalized intensity) was 2.08. On to AAGTGACCCTGGTCTTTGCCCTTTCCTAGA, for which the binding signal (log2 normalized intensity) worked out at 3.98. Regarding GTCGGGCGGACGGGGAACCCAGCAAACCTG, the binding signal (log2 normalized intensity) is -1.47. The result for GCGAGAACTTACTTTTGGCCATCGCACGAG reads -1.38.

On to GGAGAAGGAAAAAAATAGGAGACTGTCTTA, for which the binding signal (log2 normalized intensity) was -1.29.

Consider AGCTCCGACTCAGTGGGGGGGGGGGGGGGG, for which the binding signal (log2 normalized intensity) is -1.33. With TATTTACTGTCCTCAAACTGTCACCTGCCC, the binding signal (log2 normalized intensity) came out at 1.74. Turning to TGGAGAGAATTCCCATCCCACTAGGTGGCG, the binding signal (log2 normalized intensity) is -1.26. CATTGGACCCTCCCAGCCAAACCCCACTCC: the binding signal (log2 normalized intensity) is 5.25. Turning to TAAAGATTATGAACTAATTTGTCTTTTCTC, the binding signal (log2 normalized intensity) was -1.35. On to ACATGAGGGACTGGGAAGAGAAGGTGAACT, for which the binding signal (log2 normalized intensity) worked out at 0.874. On to CCAAGGGTATGTTTGTGATATTGTGAAATA, for which the binding signal (log2 normalized intensity) came to 1.65. On to GTCCAAGATGGCAATGTTCCTGCTCTGTCA, for which the binding signal (log2 normalized intensity) is -1.2. For the sequence CACCAATGATCAAAGGTTAGTCTTAGGACC, the binding signal (log2 normalized intensity) came out at 3.87. For GCAAATGTGTCTTTTTTAGTCAGCATAGTT, the binding signal (log2 normalized intensity) amounted to 1.34. The same measure for TACTCATGTGGTCCTAAGACTAACCTTTGA: 7.11; for TCCTGGGAGAGAAAAGCAAGATTGGGAGCT: -1.1. Regarding CCCATGCCCTTAGCCACTGCATGATAGGCC, the binding signal (log2 normalized intensity) is -1.31. As for GCACTTTGCACCTGGGCTGGAAAGGCCACC, the binding signal (log2 normalized intensity) was determined as 3.26. The same measure for ACAATGCCTTGTGTACTGAGCAGGGTCCAA: 3.88. Regarding TCCTCTCCTACTTCTGTTTAAACTGATAAC, the binding signal (log2 normalized intensity) came to 0.76.

As for CCTATGGTCTGTTCACTTGCCAAGCCTAGT, the binding signal (log2 normalized intensity) is -0.838. On to AGAGTGATCTTTGGGCCATATTGACTAAAC, for which the binding signal (log2 normalized intensity) was determined as 1.12. As for GATGGGGTCATGATAAGAGCAGAGACAGGC, the binding signal (log2 normalized intensity) is -0.864. Turning to CAGTAGGAGTTGGAACGGGGGCAAGGGTCA, the binding signal (log2 normalized intensity) amounted to 6.1. On to GGCCATCTAGCTACAGGAGAACAAAGTTCA, for which the binding signal (log2 normalized intensity) is 4.35. With CTAGTGATGTGGAAATCTGGACTCAGCAGA, the binding signal (log2 normalized intensity) amounted to 1.92.

With ATCACTGAAGCGACCCCTCGAGGCAACCTT, the binding signal (log2 normalized intensity) worked out at 1.75. For the sequence GGAGTAGTCAAATTTGTCTAGCGCAAATGA, the binding signal (log2 normalized intensity) was -1.38. For the sequence CCACATTCTGAGACTAAAGAGTACACAAAG, the binding signal (log2 normalized intensity) is -1. As to CAGGCGGAGCACACCAGGCCCTCGGCATCA, the binding signal (log2 normalized intensity) was -1.16. The result for AAGTTCAACCTCATTATCTTCAGTCTAGAA reads 0.29.

Regarding TGTCTACCCTTTTGCCCTTTGAGCTTCTGT, the binding signal (log2 normalized intensity) was found to be 5.93. Take AGTAGATAACTTCAAGGAGCTCGGCGCCAG: the binding signal (log2 normalized intensity) is -1.27.

With TTGAGTCTGGTGTTCTCTTGGCCAACAACT, the binding signal (log2 normalized intensity) worked out at 0.272. For AGTCCAAATTCCTAACTATGGTTGATAAGG, the binding signal (log2 normalized intensity) was 0.798. ATTTCTAGGTTTGATCTTTGCCCTACAATT: the binding signal (log2 normalized intensity) is 6.36. With ACCCCTTGCAAATAAGTCCGGCAGAGCTAT, the binding signal (log2 normalized intensity) was -1.37. On to ACTCAGGTCATCAGGACTCTAACTGGCTTT, for which the binding signal (log2 normalized intensity) is -0.45.

Turning to ATCTCGTGTCTTTCATCTCTGTAAACTGGC, the binding signal (log2 normalized intensity) amounted to 1.02. As for GACCTCTGCCCTTCCACCCACTTTATCTTC, the binding signal (log2 normalized intensity) was found to be 3.59. The result for ACAAGTGAAAGTCTAAAGTTCAGTGAGATT reads 3.78. The same measure for TAACATTGCTGACCCCCTACATAGAGAGCA: 3.08; for ACTTCTTTGAAGAAGACAAAACAGCGTACT: -1.17. Take AGAGCTCTGTGCCTTTCTCTGCAGCTTAAA: the binding signal (log2 normalized intensity) is -1.43. With CTTAGAAAGAGGGTGTAAGAGTGAACTCTG, the binding signal (log2 normalized intensity) came out at 2.79. The result for GTGACTGAAGTCCAACCCTCCGTTTCTCTG reads 1.39; that for AGGCTTAGGCCAGGCGGAGCACACCAGGCC, -1.41; that for GGGGCCTAGCTTGTAAAGGGTAATCTGCTT, -0.484. As to GCCTCCTCCATCTCCTCCACCAGCTTGCTG, the binding signal (log2 normalized intensity) was -1.28. Take GACCCATCCCTCAGGGTCCATATCCAATAA: the binding signal (log2 normalized intensity) came to 2.61.

As to CTCAGCTCCTAAAGGCAGCCCCTTATCAGG, the binding signal (log2 normalized intensity) is -1.3.

As to AGCAAACACAAACTATGACCTTTGAAACTT, the binding signal (log2 normalized intensity) was determined as 7.82. The result for ATTCTTTCTGATAAGAGCATTTTTGTATGC reads 0.989; that for ATCTTGCTGTACACTCAGGTCTTTCTGGAG, 0.683; that for CTCCGCCTCCCTCCCCCTTTCTCCGCTAAG, 3. Turning to CTTTCTCCTCCCCTCCCCTCCCCCCACTCA, the binding signal (log2 normalized intensity) was found to be 7.09. For the sequence CTCTGCCACTGGTTTGCACACACCAAAGCC, the binding signal (log2 normalized intensity) was -1.15. The same measure for ACTGACCTTTGAGAGTCAACACTGAAATAG: 2.06; for AGCCTTGCAGATAAGCCACGAGCCTGCCTG: -1.32; for GGGATTTGTACAAGTGATTGGATCTGAGAT: 0.548. The result for CTTATGCTGAATTCCCATCTAAGACTTTAT reads -0.77; that for AGTTCAACCATACACACATTCCAATCTTCT, -0.806.

Take AAGTTGAATTCTTGACTTTGGACTTTCAAA: the binding signal (log2 normalized intensity) came out at 6.12.

In the case of AAGTACAAAAGAGGCTTCCTGGGCCAGGTC, the binding signal (log2 normalized intensity) is -0.87. Turning to TGTATTCATGAGCATGCTTCCCAAATGGAG, the binding signal (log2 normalized intensity) was -1.41. For CAGTTTTTGTTTGCACCTCACAGGAAGAAC, the binding signal (log2 normalized intensity) came to 0.819. As for TGCATAGACTGCCCAGAATTTCCTGTTAGA, the binding signal (log2 normalized intensity) was -1.18.

CGCTGTTGATGGGCAGCGCGGCGCGCTGGG: the binding signal (log2 normalized intensity) is -1.38. For the sequence CAAATTTGCCTTGTCCTTAGACAGTAACCC, the binding signal (log2 normalized intensity) is 1.8.

For CCTGCCCATCCCGTGGACTCTGCCTGCCCT, the binding signal (log2 normalized intensity) amounted to 3.54. The result for CTGAAGGATATTGGCAACGCCTCAGAAGCA reads -1.34; that for ACCCCTCCGGCAGCGGCCGGAAAAAGTGAG, 1.73.

Regarding CCAAGCCACCTTCCCGGCCTGGCCACTCCG, the binding signal (log2 normalized intensity) is -1.26.

In the case of ATAGTTCTCATGGCTCATTTTGGGCATCTG, the binding signal (log2 normalized intensity) is -0.126. TTAGCTTGGACAGAGTTTGTGGTGTTTGTG: the binding signal (log2 normalized intensity) turned out to be 1.9. For the sequence TATGCACTCTCACCTTGGGGGCTGCTGGGG, the binding signal (log2 normalized intensity) was -1.16. Turning to TATTGTGAAGTGATAGCTAATGGAAAGCTT, the binding signal (log2 normalized intensity) is -1.37. For the sequence GTGAACCTTTGTCCCGTTATGGCACCAAGA, the binding signal (log2 normalized intensity) was 1.55.

TCCTTTGTTTAGACTTGGGGCCAAAAAATT: the binding signal (log2 normalized intensity) is 1.21.
